Experimental data as given in PMC4336329 (PLoS ONE, 2015).
Among all 310,000 compounds or so, about 14,000 (4.5%) showed an effect of 50% or more. The effect is printed as a negative number. This is one part of the list.

What follows are compounds tested against human ether-à-go-go-related gene (hERG) potassium channel (human, UniProt Q12809) (assay: primary screen, population patch clamp on CHO cells stably expressing hERG).
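Also: peak tail current of the secondary pulse compared with the same well before compound.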

Chain of human ether-à-go-go-related gene (hERG) potassium channel (Q12809 whole entry, looked up): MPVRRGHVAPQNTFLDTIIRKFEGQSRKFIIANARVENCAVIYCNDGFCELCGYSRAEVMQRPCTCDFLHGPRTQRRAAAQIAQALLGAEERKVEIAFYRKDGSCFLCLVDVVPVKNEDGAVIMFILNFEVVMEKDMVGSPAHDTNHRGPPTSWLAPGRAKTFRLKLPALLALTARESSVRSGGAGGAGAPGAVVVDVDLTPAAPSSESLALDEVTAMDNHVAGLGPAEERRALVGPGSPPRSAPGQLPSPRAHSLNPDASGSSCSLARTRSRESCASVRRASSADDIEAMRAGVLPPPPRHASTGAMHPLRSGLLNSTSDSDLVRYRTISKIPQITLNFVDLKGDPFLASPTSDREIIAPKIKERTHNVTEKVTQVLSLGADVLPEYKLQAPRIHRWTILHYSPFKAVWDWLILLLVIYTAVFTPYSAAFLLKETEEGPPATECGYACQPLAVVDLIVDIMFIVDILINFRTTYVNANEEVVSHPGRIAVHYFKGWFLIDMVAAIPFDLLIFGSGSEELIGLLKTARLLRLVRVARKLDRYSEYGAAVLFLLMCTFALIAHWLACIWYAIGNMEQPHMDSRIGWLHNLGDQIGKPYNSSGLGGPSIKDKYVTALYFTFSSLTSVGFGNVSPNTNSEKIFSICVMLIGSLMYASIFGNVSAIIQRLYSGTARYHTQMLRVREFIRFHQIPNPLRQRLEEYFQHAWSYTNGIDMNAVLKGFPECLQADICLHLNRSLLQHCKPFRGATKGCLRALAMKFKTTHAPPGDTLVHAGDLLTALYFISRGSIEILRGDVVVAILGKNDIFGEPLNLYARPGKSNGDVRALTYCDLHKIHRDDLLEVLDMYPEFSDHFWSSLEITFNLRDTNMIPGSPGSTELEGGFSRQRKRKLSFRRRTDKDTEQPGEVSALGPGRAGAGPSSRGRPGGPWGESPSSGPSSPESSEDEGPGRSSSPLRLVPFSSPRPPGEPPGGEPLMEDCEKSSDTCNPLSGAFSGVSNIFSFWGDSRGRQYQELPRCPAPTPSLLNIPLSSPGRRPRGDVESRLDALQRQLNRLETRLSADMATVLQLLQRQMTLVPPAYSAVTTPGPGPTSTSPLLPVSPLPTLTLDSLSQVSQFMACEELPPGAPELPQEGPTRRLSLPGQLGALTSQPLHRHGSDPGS

Row | Compound | hERG current change (%, negative = inhibition) at 10uM
1 | c1ccc(Cn2nnc3c(NCc4ccc5c(c4)OCO5)nc(C4CC4)nc32)cc1 | 5.44%
2 | O=C(NC1CCS(=O)(=O)C1)/C(=C\c1ccco1)NC(=O)c1ccccc1 (stereo not shown) | 1.36%
3 | O=C(CN1C(=O)NC2(CCCCCCC2)C1=O)Nc1ccc(Br)cc1Br | -14.3%
4 | O=C(COC(=O)C1CC1)Nc1ccc(Cl)cn1 | 2.17%
5 | Cc1ccc(CNC(=O)CSc2nnc3n2CCCCC3)cc1 | -4.49%
6 | COc1ccc(NC(=S)N2CCN(Cc3ccccc3)CC2)c(OC)c1 | -5.79%
7 | CC(Cl)(Cl)/C(=N/P(=S)(N1CCOCC1)N1CCOCC1)N1CCOCC1 | 13.7%
8 | O=C(COC(=O)Cc1ccc(S(=O)(=O)N2CCOCC2)s1)NCc1ccc(Cl)cc1 | -27.8%
9 | CCc1ccc(C(=O)NC(CCSC)C(=O)O)cc1 (stereo not shown) | 15.6%
10 | COc1cccc(C(=O)N2c3cc(C)ccc3OCC2C(C)(C)C)c1 (stereo not shown) | 12.2%
11 | COc1ccc(C2NC(=S)NC(C)=C2C(=O)Nc2ccccn2)cc1 (stereo not shown) | -0.0177%
12 | COc1ccccc1OCC(=O)N1CCN(c2ccccc2OC)CC1 | 1.3%
13 | COc1ccc2nc(C3CCCCC3)c3c(c2c1)CCC3 | 8.35%
14 | c1ccc2c(c1)CCN(c1nc(CN3CCOCC3)nc3sc4c(c13)CCCC4)C2 | -60.2%
15 | CCC1CN(C(=O)NCc2ccc(F)cc2)c2cc(Cl)ccc2O1 (stereo not shown) | 12.5%
16 | O=C(O)c1ccc(Cn2nnc3sc4c(c3c2=O)CCCC4)cc1 | 16.8%
17 | O=C(NC1=NCCCCC1)c1cccc2ccccc12 | 9.26%
18 | CCCCN(C(=O)c1ccc([N+](=O)[O-])s1)c1c(N)n(CCCC)c(=O)[nH]c1=O | -12.9%
19 | CCCCN1CC(=O)N2[C@H]3c4ccccc4OC[C@@H]3[C@H](c3ccccc3)[C@]2(C)C1=O | -19.9%
20 | Clc1ccc(CSc2nnc3c(n2)[nH]c2ccccc23)cc1 | -1.62%
21 | COc1ccc2c(c1)CCCC21NC(=O)N(CC(N)=O)C1=O (stereo not shown) | -6.13%
22 | Cc1cccn2c(=O)c(C=O)c(Sc3ncccn3)nc12 | 18.6%

Row | Compound | hERG current change (%, negative = inhibition) at 10uM
23 | CCCc1c(C)nc(N2CCN(c3ccccc3F)CC2)[nH]c1=O | 23%
24 | COc1ccc(CN2CCC(Cc3ccccc3)CC2)c(C)c1C | -23%
25 | Cn1nnnc1SCC(=O)c1cccs1 | 3%
26 | CCOC(=O)C1C(=O)OC(C)(C)C1C(C)C(=O)c1ccc(C)cc1C (stereo not shown) | -33.2%
27 | COc1cc(C)c(S(=O)(=O)NCc2cccnc2)cc1C | 15.7%
28 | CC(=O)c1cccc(NC(=O)COC(=O)c2n[nH]c3ccccc23)c1 | 3.96%
29 | Cc1ccc(S(=O)(=O)Nc2ccc3nc(-c4cccn4C)[nH]c3c2)cc1 | -79.3%
30 | COc1ccccc1NC=C1C(=O)OC(C)(C)OC1=O | -24%
31 | O=C1C2CCCN2C(=O)N1CCCCN1CCN(c2ccccc2)CC1 (stereo not shown) | -21.6%
32 | Cn1c(SCc2ccccc2Cl)nnc1-c1cnccn1 | 8.99%
33 | CCN(CC(=O)Nc1ccc(S(=O)(=O)N2CCCC2)cc1)CC(=O)Nc1cccc(OC)c1 | 16%
34 | Nc1ccc(C(=O)OCCCc2nc3cc4ccccc4cc3[nH]2)cc1 | -33%
35 | COc1cc2cc(C#N)c(SCC(=O)Nc3cc(C)on3)nc2cc1OC | 4.1%
36 | COc1cccc(OC)c1C(=O)N1CCN(c2c(Cc3ccccc3)c(C)nc3ncnn23)CC1 | -16%
37 | Cc1ccccc1CNC(=O)CCC(=O)N1CCOc2ccccc21 | 7.41%
38 | CC1(NC(=O)CCc2nc3ccccc3c(=O)[nH]2)CCS(=O)(=O)C1 (stereo not shown) | -3.51%
39 | O=C(c1cccc(-c2ccccc2F)c1)N1CC[C@@H](N2CCC(O)CC2)[C@H](O)C1 | -17.7%
40 | Cc1cc(=O)[nH]c(NN=C2C3CC4CC(C3)CC2C4)n1 | -1.08%
41 | COc1ccc(S(=O)(=O)N2CCC3(CC2)OCCN3S(=O)(=O)c2cccs2)cc1 | -23.8%
42 | Cc1sc2c(c1C)c(=O)n(-c1cccc(C(F)(F)F)c1)c(=O)n2CC(=O)NCc1ccco1 | 10.4%
43 | CC(=O)c1cc(C#N)c(SCc2ccc(F)cc2)nc1C | 10.5%
